In PubChem BioAssay AID1030 (National Center for Advancing Translational Sciences (NCATS), 2008):
Where “and” joins values, the source holds several entries; their conditions need not be identical. Equal entries are not always repeated. The whole screen tested about 220,000 compounds, of which about 16,000 (7.3%) were called active. Inconclusive results, whose numbers are uncertain, are shown with a selection of clear calls. Calls follow the shape of the dose curve; as a rule, active = well fitted inhibition curve with a large enough effect (not every such curve was filed as active); inconclusive = small, poorly fitted or top-dose-only effect, or another doubt; inactive = no such curve, though single readings can be large or run the other way. No potency is given beside an inconclusive call; the fits are too rough.

biological target: Aldehyde dehydrogenase 1A1 (Homo sapiens) (UniProt P00352); assay: qHTS Assay for Inhibitors of Aldehyde Dehydrogenase 1 (ALDH1A1); conditions: Purified ALDH1A1, NADH fluorescence, propionaldehyde substrate; series mostly up to 75.3 µM;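 as to activity, negative = inhibition: plate controls were no enzyme wells and a reference inhibitor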
Potency is read from the fitted curve at half-maximal effect; tags tell the direction and shape of the fitted curve.

Sequence of UniProt P00352 (P00352 whole entry, looked up): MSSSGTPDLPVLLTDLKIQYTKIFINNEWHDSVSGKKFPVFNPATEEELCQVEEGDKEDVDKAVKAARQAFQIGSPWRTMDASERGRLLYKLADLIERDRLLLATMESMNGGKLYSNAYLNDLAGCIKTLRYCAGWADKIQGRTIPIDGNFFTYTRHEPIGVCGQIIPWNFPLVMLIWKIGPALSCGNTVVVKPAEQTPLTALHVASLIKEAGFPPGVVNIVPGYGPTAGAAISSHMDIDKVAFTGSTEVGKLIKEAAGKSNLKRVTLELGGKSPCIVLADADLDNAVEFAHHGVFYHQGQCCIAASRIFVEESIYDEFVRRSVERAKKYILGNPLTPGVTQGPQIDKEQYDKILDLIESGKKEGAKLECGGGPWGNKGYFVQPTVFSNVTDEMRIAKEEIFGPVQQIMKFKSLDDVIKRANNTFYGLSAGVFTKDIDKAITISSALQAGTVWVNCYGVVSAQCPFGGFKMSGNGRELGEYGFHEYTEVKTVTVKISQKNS

SMILES | Potency | activity, negative = inhibition
CC(/C=N/n1c(COc2ccccc2)n[nH]c1=S)=C\c1ccccc1 | inconclusive [inhibitor, partial curve] | 
N#Cc1ccc(CSc2nnc(-c3c[nH]c4ccccc34)n2-c2ccccc2)cc1 | inconclusive [inhibitor, single point] | 
CN(C)c1nc(N)c2ncc(=S)[nH]c2n1 | inconclusive [inhibitor, full curve] | 
Cc1ccc(Sc2nc3c(c(=O)[nH]c(=O)n3C)n2CCc2ccccc2)cc1 | active: 0.631 µM | 
CNC(=O)c1sc(N2N=C3/C(=C/c4ccccc4)CCCC3C2c2ccccc2)nc1C (stereo not given) | inconclusive [inhibitor, single point] | 
Cc1cc(Cl)ccc1-n1c(-c2cccnc2)n[nH]c1=S | inconclusive [inhibitor, partial curve] | 
CC(C)(C)C(=O)CCN1C(=O)C2(OCCO2)c2ccccc21 | inactive | 
COc1ccc(NC(=S)Nc2cccc(S(=O)(=O)N3CCCCC3)c2)cc1 | inconclusive [inhibitor, single point] | 
CC(/C=C1\N=C(SCc2ccccc2Cl)SC1=O)=C\c1ccccc1 | inconclusive [inhibitor, single point] | 
COc1ccc(Cl)cc1N1CC(C(=O)Nc2nccs2)CC1=O (stereo not given) | inactive | 
CN1CCN(C(=O)C23CC4CC(C2)CC(c2ccccc2)(C4)C3)CC1 | inconclusive [inhibitor, single point] | 
CC(C)(C)c1[nH]ncc1[N+](=O)[O-] | inconclusive [inhibitor, single point] | 
O=c1[nH]c(CN2CCN(S(=O)(=O)c3cccs3)CC2)nc2c(Br)cc(Br)cc12 | inconclusive [inhibitor, single point] | 
Cc1ccc(-n2c(C)cc(/C([O-])=C(/C(=S)Nc3ccc(F)c(Cl)c3)[n+]3ccccc3)c2C)cc1 | inconclusive [inhibitor, single point] | 
CCC1=C2CC[C@H]3C(=O)N(C)C(=O)[C@H]3[C@H]2[C@@]2(C)C(=NCc3ccccc3)OC(=O)N2C1=O | inactive | 
Cc1cc(NS(=O)(=O)c2ccc(NC(=O)CCCOc3ccc(Cl)cc3)cc2)no1 | inactive | 
CC(=O)N(c1cccc(C)c1)C1SC(=O)N(c2ccccc2)C1=O (stereo not given) | active: 8.91 µM | 
Nc1nc(SCC(=O)Nc2ccc([N+](=O)[O-])cc2Br)n[nH]1 | inconclusive [inhibitor, single point] | 
OC[C@H]1O[C@@H](n2cnc3c(NCc4ccccc4)ncnc32)[C@H](O)[C@@H]1O | inactive | 
CC(NC(=O)CN1CCc2ccccc21)c1ccccc1 (stereo not given) | inconclusive [inhibitor, single point] | 
CCN(CC)c1ccc(C(NC(C)=O)NC(C)=O)cc1 | active: 14.1 µM | 
CCN1CCN(C(=S)Nc2cc(S(=O)(=O)N(CC)CC)ccc2C)CC1 | inconclusive [inhibitor, single point] | 
COCCn1c(C)cc(C(=O)COC(=O)CCN2C(=O)c3ccccc3C2=O)c1C | inconclusive [inhibitor, single point] | 
CC(C)CNC(=S)Nc1ccc(S(N)(=O)=O)cc1 | inconclusive [inhibitor, single point] | 

SMILES | Potency | activity, negative = inhibition
COc1ccc(C(CC(=O)O)NC(=O)COc2ccccc2)cc1 (stereo not given) | inconclusive [inhibitor, single point] | 
COc1ccc(Cc2nnc(N/N=C/c3ccc(O)cc3O)[nH]c2=O)cc1OC | inactive | 
O=c1c2ccccc2c(-c2ccccc2)nn1Cc1ccc(Cl)cc1 | inconclusive [inhibitor, single point] | 
CCN(CC)C(=O)CSc1ncnc2c(-c3ccc(OC)cc3)nsc12 | inconclusive [inhibitor, full curve] | 
CCN1C(=O)[C@H]2[C@H]3[C@H](O)[C@H](O)C/C(=N/O[C@@H](C)c4cn([C@H](CO)Cc5ccccc5)nn4)[C@@H]3CC[C@@H]2C1=O |  | inactive: -5.87% [at 13.5 µM] and inactive: 1.7% [at 13.5 µM]
CCN(CC)CCCN(Cc1cc2cc3c(cc2[nH]c1=O)OCCO3)C(=O)Nc1ccccc1 | inconclusive [inhibitor, partial curve] | 
CCCn1c2ccccc2c2cc(C(=O)O)ccc21 | inconclusive [inhibitor, partial curve] | 
O=C(COC(=O)/C=C/c1ccco1)NCc1ccccc1Cl | inconclusive [inhibitor, single point] | 
N#Cc1c(N)oc(-c2ccc3c(c2)OCO3)c1-c1ccc2c(c1)OCO2 | inconclusive [inhibitor, single point] | 
CN=C1SC(CC(=O)Nc2ccccc2F)C(=O)N1/N=C/c1ccc(O)c(OC)c1 (stereo not given) | inconclusive [inhibitor, single point] | 
Fc1ccc(C2=Nn3c(Cc4ccccc4)nnc3SC2)cc1 | inconclusive [inhibitor, partial curve] | 
CCOC(=O)c1ccc(NC(=S)N2CCN(CCN=CC3=C(O)CC(c4ccccc4)CC3=O)CC2)cc1 (stereo not given) | inconclusive [inhibitor, single point] | 
COc1ccccc1NC(=O)c1ccc(NS(=O)(=O)c2ccc(F)c(F)c2F)cc1 | inconclusive [inhibitor, single point] | 
COc1ccc(NC(=O)CSC2=C(C#N)C(c3ccco3)C3=C(CCCC3=O)N2)c(OC)c1 (stereo not given) | inconclusive [inhibitor, partial curve] | 
COc1ccc(-n2nnc3c(SCC(=O)Nc4ccccc4F)ncnc32)cc1 | inconclusive [inhibitor, single point] | 
CSCCCNC(=O)c1ccc(OC2CCN(CCc3ccccc3)CC2)cc1 | inconclusive [inhibitor, single point] | 
CCN(CC)C(=O)CSc1nc2ccccc2c(=O)n1CC1CCCCC1 | active: 11.2 µM | 
COc1ccc(CNC(=O)COc2ccc([N+](=O)[O-])cc2)cc1 | inactive | 
COC(=O)C(C(=O)Nc1ncccn1)C1CCCCCC1 (stereo not given) | inconclusive [inhibitor, single point] | 
O=c1c2cc(-c3ccccc3)sc2ncn1/N=C/c1ccco1 | inconclusive [inhibitor, single point] | 
O=[N+]1C2=C(CCCC2)N([O-])C12CCCC2 | inconclusive [inhibitor, single point] | 
COC(=O)c1cc(OC)c(OC)cc1NCC(=O)Nc1ccc(C)cc1 | inconclusive [inhibitor, partial curve] | 
CCNc1nc2ccccc2[nH]1 | inactive | 
CCOc1cc(S(=O)(=O)NCc2cccnc2)c(C)cc1C | inconclusive [inhibitor, partial curve] | 

SMILES | Potency | activity, negative = inhibition
CCCN1C(=O)C(O)(CC(=O)c2cccc(OC)c2)c2ccccc21 (stereo not given) | active: 4.47 µM | 
CCOC(=O)N1CCN(C(=S)Nc2ccc(C)c(C)c2)CC1 | inactive | 
CCOC(=O)c1c(C2CC2)csc1NC(=O)COC(=O)c1cc(OC)c(OC)cc1[N+](=O)[O-] | inactive | 
COc1ccc(-c2nc(CSCC(=O)N3CCC(C(N)=O)CC3)c(C)o2)cc1OC | inconclusive [inhibitor, single point] | 
Cc1ccc(Nc2nc(N/N=C/c3c[nH]c4ccccc34)nc(N3CCOCC3)n2)cc1 | inactive | 
O=C1c2ccc(Oc3ccc4c(c3)C(=O)N(CCCCO)C4=O)cc2C(=O)N1CCCCO | inconclusive [inhibitor, partial curve] | 
O=C(O)c1cccc([N+](=O)[O-])c1C(=O)Nc1nc2ccccc2s1 | inactive | 
O=C(c1ccco1)N1CCN(C(=O)c2sccc2-c2ccccc2)CC1 | active: 12.6 µM | 
COc1ccc(OCCOCCOc2ccc(C)cc2[N+](=O)[O-])cc1 | active: 25.1 µM | 
O=C(COC(=O)CCc1nc2ccccc2c(=O)[nH]1)NC(=O)NC1CCCC1 | inactive | 
O=c1nc2s/c(=C\c3ccco3)c(=O)n2nc1Cc1ccccc1 | inconclusive [inhibitor, partial curve] | 
CC(C)c1ccc(/C=N/Nc2ccc(C(=O)O)cc2)cc1 | inconclusive [inhibitor, single point] | 
CCOC(=O)NC1(C(F)(F)F)NC(=O)N(Cc2ccco2)C1=O (stereo not given) | inactive | 
COc1ccccc1CN(Cc1nc2ccccc2c(=O)[nH]1)C(=O)Nc1ccccc1C | inconclusive [inhibitor, single point] | 
COc1cc(OC)cc(C(=O)n2cnnc2N)c1 | inactive | 
CCN(CC)S(=O)(=O)c1ccc(NS(=O)(=O)c2ccc(O)c([N+](=O)[O-])c2)cc1 | active: 5.01 µM | 
CC1(c2ccccc2)CC(C)(C)N2C(=O)C3(C(C#N)=C(N)Oc4cc(O)ccc43)c3cccc1c32 (stereo not given) | inactive | 
COCCOC(=O)C1=C(C)NC2=C(C(=O)CC(C)(C)C2)C1c1ccc(N(C)C)cc1 (stereo not given) | inconclusive [inhibitor, single point] | 
Cc1sc2nc(C3CCCCC3)nc(SCC(=O)N3CC(=O)Nc4ccccc43)c2c1C | inactive | 
O=C1C=CC(=O)N1c1ccc(N2CCCCC2)cc1 | active: 0.251 µM | 
CCC(C)NC(=O)Cn1cc(S(=O)(=O)N2CCN(c3ccccc3F)CC2)c2ccccc2c1=O (stereo not given) | inactive | 
COc1ccc(C(=O)NNC(=S)NC(=O)c2ccco2)cc1 | inactive | 
